The campaign covered roughly 310,000 compounds. About 2,200 (0.71%) showed an effect of 50% or more. Effects have a minus sign here. Some of the results follow.

human ether-à-go-go-related gene (hERG) potassium channel, sequence (Q12809 whole entry, looked up): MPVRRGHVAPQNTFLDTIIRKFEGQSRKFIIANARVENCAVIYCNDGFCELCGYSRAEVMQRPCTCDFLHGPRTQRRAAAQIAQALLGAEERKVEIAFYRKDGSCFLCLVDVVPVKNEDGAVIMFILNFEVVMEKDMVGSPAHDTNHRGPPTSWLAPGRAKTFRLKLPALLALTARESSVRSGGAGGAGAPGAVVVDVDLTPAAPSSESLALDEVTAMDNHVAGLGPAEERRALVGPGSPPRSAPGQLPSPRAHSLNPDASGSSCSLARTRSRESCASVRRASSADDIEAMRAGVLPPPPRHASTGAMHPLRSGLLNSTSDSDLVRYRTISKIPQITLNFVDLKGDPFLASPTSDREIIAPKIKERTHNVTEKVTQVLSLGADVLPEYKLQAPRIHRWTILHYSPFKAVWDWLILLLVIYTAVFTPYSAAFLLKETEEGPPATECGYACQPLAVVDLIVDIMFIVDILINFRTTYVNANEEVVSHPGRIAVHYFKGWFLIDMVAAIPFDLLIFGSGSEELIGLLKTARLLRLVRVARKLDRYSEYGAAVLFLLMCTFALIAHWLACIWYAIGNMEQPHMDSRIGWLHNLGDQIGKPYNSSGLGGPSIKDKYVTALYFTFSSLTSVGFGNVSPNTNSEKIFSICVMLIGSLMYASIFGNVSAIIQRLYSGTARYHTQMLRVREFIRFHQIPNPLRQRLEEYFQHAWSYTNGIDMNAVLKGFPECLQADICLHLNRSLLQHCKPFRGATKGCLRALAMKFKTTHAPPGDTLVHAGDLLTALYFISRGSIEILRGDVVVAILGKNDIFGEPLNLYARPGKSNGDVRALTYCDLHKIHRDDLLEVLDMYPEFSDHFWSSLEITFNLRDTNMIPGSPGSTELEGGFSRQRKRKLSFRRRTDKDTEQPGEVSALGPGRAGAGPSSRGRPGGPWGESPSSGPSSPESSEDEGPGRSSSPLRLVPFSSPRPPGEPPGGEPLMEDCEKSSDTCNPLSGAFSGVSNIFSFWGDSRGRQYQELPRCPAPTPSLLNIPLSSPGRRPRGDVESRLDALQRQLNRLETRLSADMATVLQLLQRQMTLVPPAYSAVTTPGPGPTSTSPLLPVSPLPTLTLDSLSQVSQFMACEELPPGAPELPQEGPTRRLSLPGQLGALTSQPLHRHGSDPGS

This assay addresses human ether-à-go-go-related gene (hERG) potassium channel (human, UniProt Q12809). In words: primary screen, population patch clamp on CHO cells stably expressing hERG.
In the case of `CCOC(=O)c1sc(=S)n(Cc2ccccc2)c1C`, the “hERG current change (%, negative = inhibition) at 1uM” value is on record as 12.2%.

As to `COC(=O)c1sc(N)c(C(=O)OC)c1COC(=O)CNS(=O)(=O)c1ccc(C)c(C)c1`, the “hERG current change (%, negative = inhibition) at 1uM” value is 11.4%.

`CC1CCCN(C(=O)C(=O)Nc2ccc3nc4n(c(=O)c3c2)CCCCC4)C1` (centres unmarked): the “hERG current change (%, negative = inhibition) at 1uM” value turned out to be 9.21%.

For `COc1ccc(/C=N/NC(=O)C(=O)N2CCN(c3ccccc3OC)CC2)cc1`, the “hERG current change (%, negative = inhibition) at 1uM” value is given as 2.46%.

In the case of `Cc1ccc(C)c(C(=O)CCC(=O)OCn2nnc3ccccc3c2=O)c1`, the “hERG current change (%, negative = inhibition) at 1uM” value was 12.2%.

For the molecule `COc1ccc(CC(=O)N2N=C(C)CC2(O)C(F)(F)F)cc1OC` (centres unmarked), the “hERG current change (%, negative = inhibition) at 1uM” value is recorded as 10.2%.

For the molecule `CCCCN(C(=O)C1=NN(c2cc(C)ccc2C)C(=O)CC1)c1c(N)n(CCC)c(=O)[nH]c1=O`, the “hERG current change (%, negative = inhibition) at 1uM” value came to 3.7%.

For `Cc1ccc(C)c(OCC(=O)NNC(=O)C2CCC2)c1`, the “hERG current change (%, negative = inhibition) at 1uM” value amounted to 23.4%.

`COc1ccc(NC(=O)C2CCCN(S(=O)(=O)c3cccc4nonc34)C2)c(OC)c1` (centres unmarked): the “hERG current change (%, negative = inhibition) at 1uM” value is recorded as 5.95%.

On to `CCCC(=O)N1CCN(c2ccc(NC(=O)c3cccs3)cc2)CC1`, for which the “hERG current change (%, negative = inhibition) at 1uM” value was determined as 0.426%.

With `Cc1ccc(N(CC(=O)N/N=C/c2cccc(Br)c2)S(C)(=O)=O)cc1`, the “hERG current change (%, negative = inhibition) at 1uM” value is given as 14.2%.

In the case of `CSc1ccccc1Nc1ncnc(N)n1`, the “hERG current change (%, negative = inhibition) at 1uM” value came out at 5.08%.

With `Cc1nn(-c2cccc(Cl)c2)c2nc(-c3ccco3)cc(C(=O)O)c12`, the “hERG current change (%, negative = inhibition) at 1uM” value stood at 19.7%.

Turning to `Cc1cccc(NC(=O)Nc2cccc(C)n2)n1`, the “hERG current change (%, negative = inhibition) at 1uM” value turned out to be 13.8%.

For the molecule `CCOc1ccc(N(CC(=O)Nc2cccc(C)c2C)S(=O)(=O)c2c(C)[nH]c(=O)[nH]c2=O)cc1`, the “hERG current change (%, negative = inhibition) at 1uM” value is recorded as 9.87%.

On to `CCc1ccc(CN2CC(C(=O)O)CC2=O)cc1` (centres unmarked), for which the “hERG current change (%, negative = inhibition) at 1uM” value was determined as 8.08%.

With `COc1cc(CNCc2ccccn2)ccc1OCc1cccc(Cl)c1.Cl`, the “hERG current change (%, negative = inhibition) at 1uM” value was -22.3%.

Turning to `CCCCn1c(=O)[nH]c(=O)c2c1nc(-c1ccc3ccccc3c1)n2CC`, the “hERG current change (%, negative = inhibition) at 1uM” value is given as 1.39%.

Turning to `Cn1nc(C(F)(F)F)c2cc(C(=O)Nc3ccc(C(F)(F)F)cc3)sc21`, the “hERG current change (%, negative = inhibition) at 1uM” value was found to be 14.1%.

As to `COc1ccc(C2C(CC(=O)O)=C(O)C(=O)N2c2ccccc2)cc1` (centres unmarked), the “hERG current change (%, negative = inhibition) at 1uM” value was 12.4%.

For `ClCc1nnc(-c2ccccc2)o1`, the “hERG current change (%, negative = inhibition) at 1uM” value was 15.5%.

Regarding `Cc1ccnc(NS(=O)(=O)c2ccc(NC(=O)CCc3ccccc3)cc2)n1`, the “hERG current change (%, negative = inhibition) at 1uM” value was found to be 11.8%.

As for `CC(C)c1ccccc1NC(=S)NCC1(N(C)C)CCCCC1`, the “hERG current change (%, negative = inhibition) at 1uM” value was 0.479%.

As to `O=C(CN1CCN(c2ccc(Cl)cc2)CC1)Nc1cccc(F)c1`, the “hERG current change (%, negative = inhibition) at 1uM” value was found to be 11.4%.

Take `O=[N+]([O-])c1ccc(NCc2ccccn2)nc1`: the “hERG current change (%, negative = inhibition) at 1uM” value amounted to 3.7%.

Take `COc1cc2c(cc1OC)CN(CCOc1ccc(Br)cc1)CC2`: the “hERG current change (%, negative = inhibition) at 1uM” value was -12.7%.

Turning to `CCCCNC(=O)c1cc2nc3c(c(C(F)(F)F)n2n1)CCc1ccccc1-3`, the “hERG current change (%, negative = inhibition) at 1uM” value worked out at 10.9%.

On to `N#Cc1c(N)nc(SCc2ccncc2)c(C#N)c1-c1cccs1`, for which the “hERG current change (%, negative = inhibition) at 1uM” value is listed as -1.21%.

As to `COc1ccc(NC(=O)CSc2nc(C)cc(C(F)(F)F)n2)cc1`, the “hERG current change (%, negative = inhibition) at 1uM” value was -3.19%.

On to `CC(=O)Nc1ccc(NS(=O)(=O)c2ccc3ccccc3c2)cc1`, for which the “hERG current change (%, negative = inhibition) at 1uM” value worked out at 5.46%.

On to `O=C1NN(c2cccc(Br)c2)C(=O)/C1=C/c1ccc(-c2cc([N+](=O)[O-])ccc2O)o1`, for which the “hERG current change (%, negative = inhibition) at 1uM” value is listed as 7.2%.

As to `Cc1ccnc(NC(=O)c2cc([N+](=O)[O-])cc([N+](=O)[O-])c2)c1`, the “hERG current change (%, negative = inhibition) at 1uM” value stood at 12.5%.

As for `CCNC(=O)OCC(CC)NC(=O)OCC(C)C` (centres unmarked), the “hERG current change (%, negative = inhibition) at 1uM” value amounted to 5.98%.

As to `CC(Sc1nnc(N)s1)c1ccccc1Cl` (centres unmarked), the “hERG current change (%, negative = inhibition) at 1uM” value is reported as 1.31%.

Regarding `COc1ccc(-c2nc3ccccc3c(=O)n2-c2nccs2)cc1`, the “hERG current change (%, negative = inhibition) at 1uM” value was 12.7%.

For `CC(C)CC(=O)NC(NC(=S)Nc1cccc2cccnc12)C(Cl)(Cl)Cl` (centres unmarked), the “hERG current change (%, negative = inhibition) at 1uM” value is 12.1%.

For `O=C(NCCC1=CCCCC1)C1COc2ccccc2O1` (centres unmarked), the “hERG current change (%, negative = inhibition) at 1uM” value is -4.32%.

As to `CCC(=O)NC1CCN(C(=S)NC)CC1`, the “hERG current change (%, negative = inhibition) at 1uM” value is listed as 9.41%.

As to `CCN1CCN(CCNC(=O)c2cc(Cl)c(NC(=O)C3=C(C)OCCS3)cc2OC)CC1`, the “hERG current change (%, negative = inhibition) at 1uM” value was -38.5%.

With `O=C(Nc1nc2cc3c(cc2s1)OCO3)c1cccc(N2C(=O)CCC2=O)c1`, the “hERG current change (%, negative = inhibition) at 1uM” value was 10.6%.

Regarding `COc1ccc(-c2nsc(SCC(=O)Nc3cc(C)on3)n2)cc1`, the “hERG current change (%, negative = inhibition) at 1uM” value was 11.9%.

`O=C(Nc1ccc(N2CCN(C(=O)c3ccccc3)CC2)cc1)c1cc([N+](=O)[O-])ccc1N1CCOCC1`: the “hERG current change (%, negative = inhibition) at 1uM” value is -1.34%.

On to `COc1ccc(N2C(=O)[C@@H]3[C@H](C2=O)[C@H]2c4ccccc4C=CN2[C@@H]3C(C)=O)cc1`, for which the “hERG current change (%, negative = inhibition) at 1uM” value is given as 19.4%.

`CCC(C)c1ccccc1N1CC(C(=O)N2CCN(S(=O)(=O)c3ccccc3Br)CC2)CC1=O` (centres unmarked): the “hERG current change (%, negative = inhibition) at 1uM” value is given as -8.57%.

With `O=C1/C(=C\c2ccc(O)c(O)c2)SC(=S)N1Cc1ccccc1`, the “hERG current change (%, negative = inhibition) at 1uM” value stood at 12.3%.

On to `CCOC(=S)NC(=O)c1sc2ccccc2c1Cl`, for which the “hERG current change (%, negative = inhibition) at 1uM” value was found to be 12.2%.

With `Cc1nn(-c2ccc(NC(=O)c3ccncc3)cc2)c(C)c1Cl`, the “hERG current change (%, negative = inhibition) at 1uM” value was 15.7%.

With `O=C(Nc1cccc(S(=O)(=O)N2CCOCC2)c1)c1ccco1`, the “hERG current change (%, negative = inhibition) at 1uM” value is given as 4.81%.

As for `NP(=O)(OCCCc1ccccc1)Oc1ccccc1` (centres unmarked), the “hERG current change (%, negative = inhibition) at 1uM” value was 11.1%.

In the case of `COc1cc2c(cc1OC)C(C(=O)O)C(c1cc(Br)c(O)c(OC)c1)N(C)C2=O` (centres unmarked), the “hERG current change (%, negative = inhibition) at 1uM” value is recorded as 12.9%.

For the molecule `CCN(Cc1ccc(O)cc1)CC1CCCN(CCc2cccc(F)c2)C1` (centres unmarked), the “hERG current change (%, negative = inhibition) at 1uM” value was -8.8%.

Turning to `C=CCn1c(SCC(=O)OCC)nc(C(F)(F)F)cc1=O`, the “hERG current change (%, negative = inhibition) at 1uM” value came out at 2.47%.

With `CN(CC(=O)Nc1ccc(F)c(F)c1F)C(=O)c1ccc2c(c1)NC(=O)CS2`, the “hERG current change (%, negative = inhibition) at 1uM” value is reported as 6.46%.

For `Brc1ccc(-c2nnc(-c3cccc(Br)c3)o2)cc1`, the “hERG current change (%, negative = inhibition) at 1uM” value was 0.517%.

In the case of `COC(=O)[C@H](Cc1ccccc1)NC(=O)N(C)Cc1ccccc1`, the “hERG current change (%, negative = inhibition) at 1uM” value was found to be 10.4%.

In the case of `C=CCn1c(SCC(=O)c2[nH]c(C)c(C(=O)OCC)c2C)nc2scc(-c3ccccc3)c2c1=O`, the “hERG current change (%, negative = inhibition) at 1uM” value was determined as 11.2%.

(Values after paper PMC4336329 (PLoS ONE, 2015).)
